Reference: the supplement of paper PMC7826260
The list shows a part of the results. Cleavage of a single-stranded DNA pool by Rep nickase domains was read by sequencing (1 h at 37 °C, 3 µM enzyme); the outer parts of the 90-letter strands are left off. Uncut reads are compared with the no-enzyme pool on a log2 scale; more negative means more cut, near 0 not cut, and no call is made. Reads are scaled to the total; values above 0 arise when much of the pool is cut.

The sequences below were run on T1, Rep nickase domain of tomato golden mosaic virus (assay: uncleaved DNA left, log2 of reads against the no-enzyme library (log2 ratio); higher = less cleavage (more negative = more Rep cleavage of the k-mer); sequences stand for … in CTCGTCCG…ACCGGAGA).
T1 sequence (residues 1-124 of Rep, tag left off): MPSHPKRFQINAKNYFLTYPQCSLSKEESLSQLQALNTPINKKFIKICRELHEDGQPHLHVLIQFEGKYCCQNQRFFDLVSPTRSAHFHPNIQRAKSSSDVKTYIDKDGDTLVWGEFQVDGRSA
Description: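 A pool of 90-nt single-stranded DNAs with seven random bases just before the constant AC of the nick site (name = the seven bases) was cut by 3 µM recombinant His6-SUMO-tagged Rep nickase domain (300 nM DNA, 50 mM HEPES pH 8.0, 50 mM NaCl, 1 mM MnCl2, 1 h, 37 °C, three replicates). Uncut DNA was amplified and sequenced.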

Row | Sequence | uncleaved DNA left (log2)
1 | GCTGACT | 0.087
2 | ACATTAC | 0.0402
3 | TAGAAGA | 0.104
4 | GACCGAT | 0.0823
5 | ATGCTTT | 0.0492
6 | GCTTTAT | 0.0948
7 | AATTGAA | 0.0474
8 | GTCGGGT | -0.00306
9 | GGTACCT | -0.099
10 | ACAAAGC | 0.167
11 | GGATGAG | 0.0621
12 | GTATCTT | -0.0391
13 | GCACGCA | -0.0537
14 | TAAGCGA | -0.0372
15 | GCCGGTC | -0.027
16 | TAAGTTA | -0.0172
17 | TATAACC | -0.0649
18 | CTGTGAG | -0.126
19 | AATGTCA | -0.0104
20 | ACACTCA | -0.0515

Row | Sequence | uncleaved DNA left (log2)
21 | CGGTCTA | -0.0872
22 | TCAAGTC | -0.104
23 | GTAGACC | 0.134
24 | AGACAAC | -0.0763
25 | TAGATAC | -0.0555
26 | AGCGTTG | 0.0491
27 | AGTCTCC | -0.0805
28 | CGCATCT | -0.154
29 | CTAGTAG | -0.0596
30 | GGAATGA | 0.113
31 | CGATTTG | 0.0215
32 | AAGTCCG | -0.0323
33 | AGCCGTT | -0.08
34 | TCTAAGA | -0.00397
35 | TGTCCTA | -0.112
36 | CTATTCT | -0.254
37 | TGCTATT | -0.307
38 | GGGGAGG | 0.0922
39 | TCGGCGC | -0.141
40 | TGAACGG | 0.188
